# Results reported in the supplement of paper PMC4604168 (melanoma cell lines).
# This is one part of the list. Most values come without repeats; read them as rough.
# System: IPC-298
# Experiment: cell count relative to DMSO control; melanoma cells; higher = more viable cells
# Conditions: library dose: low library concentration; 72 h
# 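Note: cell number obtained by counting DAPI-stained nuclei in high-throughput microscope images with image analysis software, screen run in 1,536-well plates.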
row,SMILES,cell count
1,"C[C@]12O[C@H](C[C@]1(O)CO)n1c3ccccc3c3c4c(c5c6ccccc6n2c5c31)CNC4=O [Lestaurtinib] + Nc1ncn([C@H]2C[C@H](O)[C@@H](CO)O2)c(=O)n1 [decitabine] (first compound 0.004 µM, partner dose 0.1 µM)",68.3%
2,"C[C@]12O[C@H](C[C@]1(O)CO)n1c3ccccc3c3c4c(c5c6ccccc6n2c5c31)CNC4=O [Lestaurtinib] + COCC[n+]1c2c(n(Cc3cnccn3)c1C)C(=O)c1ccccc1C2=O [YM155] (first compound 0.004 µM, partner dose 0.0004 µM)",94.2%
3,"C[As](C)SC[C@H](NC(=O)CC[C@H](N)C(=O)O)C(=O)NCC(=O)O [Darinaparsin] + COC(=O)c1sccc1S(=O)(=O)Nc1ccc(Nc2ccccc2)cc1OC [GSK0660] (first compound 0.4 µM, partner dose 1 µM)",95.1%
4,"C[C@]12O[C@H](C[C@]1(O)CO)n1c3ccccc3c3c4c(c5c6ccccc6n2c5c31)CNC4=O [Lestaurtinib] + C[C@]1(c2nc3c(C(N)=O)cccc3[nH]2)CCCN1 [Veliparib] (first compound 0.004 µM, partner dose 1.4 µM)",93.4%
5,"C[As](C)SC[C@H](NC(=O)CC[C@H](N)C(=O)O)C(=O)NCC(=O)O [Darinaparsin] + O=C(Oc1ccc([N+](=O)[O-])cc1)N1CCC(C(O)(c2ccc3c(c2)OCO3)c2ccc3c(c2)OCO3)CC1 [JZL184] (first compound 0.4 µM, partner dose 1 µM)",99.3%

# System: IST-MEL1
# Experiment: as above
# Conditions: library dose: low library concentration; 72 h
row,SMILES,cell count
1,"C[C@]12O[C@H](C[C@]1(O)CO)n1c3ccccc3c3c4c(c5c6ccccc6n2c5c31)CNC4=O [Lestaurtinib] + OCc1c[nH]c2ccccc12 [Indole-3-carbinol] (first compound 0.004 µM, partner dose 0.8 µM)",106%
2,"C[C@]12O[C@H](C[C@]1(O)CO)n1c3ccccc3c3c4c(c5c6ccccc6n2c5c31)CNC4=O [Lestaurtinib] + CO[C@H]1C[C@@H]2CC[C@@H](C)[C@@](O)(O2)C(=O)C(=O)N2CCCC[C@H]2C(=O)O[C@H]([C@H](C)C[C@@H]2CC[C@@H](OCCO)[C@H](OC)C2)CC(=O)[C@H](C)/C=C(\C)[C@@H](O)[C@@H](OC)C(=O)[C@H](C)C[C@H](C)/C=C/C=C/C=C/1C [everolimus] (first compound 0.004 µM, partner dose 0.02 µM)",75.4%
3,"C[C@]12O[C@H](C[C@]1(O)CO)n1c3ccccc3c3c4c(c5c6ccccc6n2c5c31)CNC4=O [Lestaurtinib] + Cn1c(=O)n(-c2ccc(C(C)(C)C#N)cc2)c2c3cc(-c4cnc5ccccc5c4)ccc3ncc21 [NVP-BEZ235] (first compound 0.004 µM, partner dose 0.004 µM)",101%
4,"C[C@]12O[C@H](C[C@]1(O)CO)n1c3ccccc3c3c4c(c5c6ccccc6n2c5c31)CNC4=O [Lestaurtinib] + Nc1ccn([C@@H]2O[C@H](CO)[C@@H](O)C2(F)F)c(=O)n1 [gemcitabine] (first compound 0.004 µM, partner dose 0.0004 µM)",85.9%
5,"Cn1cc(C2=C(c3cn(C4CCN(Cc5ccccn5)CC4)c4ccccc34)C(=O)NC2=O)c2ccccc21 [Enzastaurin] + CO[C@H]1C[C@@H]2CC[C@@H](C)[C@@](O)(O2)C(=O)C(=O)N2CCCC[C@H]2C(=O)O[C@H]([C@H](C)C[C@@H]2CC[C@@H](OCCO)[C@H](OC)C2)CC(=O)[C@H](C)/C=C(\C)[C@@H](O)[C@@H](OC)C(=O)[C@H](C)C[C@H](C)/C=C/C=C/C=C/1C [everolimus] (first compound 0.8 µM, partner dose 0.02 µM)",64%
6,"C[C@]12O[C@H](C[C@]1(O)CO)n1c3ccccc3c3c4c(c5c6ccccc6n2c5c31)CNC4=O [Lestaurtinib] + Nc1cccc2c1CN(C1CCC(=O)NC1=O)C2=O [lenalidomide] (first compound 0.004 µM, partner dose 1 µM)",103%
7,"C[C@]12O[C@H](C[C@]1(O)CO)n1c3ccccc3c3c4c(c5c6ccccc6n2c5c31)CNC4=O [Lestaurtinib] + CN(c1ncccc1CNc1nc(Nc2ccc3c(c2)CC(=O)N3)ncc1C(F)(F)F)S(C)(=O)=O [PF562271] (first compound 0.004 µM, partner dose 0.08 µM)",93.9%
8,"C[C@]12O[C@H](C[C@]1(O)CO)n1c3ccccc3c3c4c(c5c6ccccc6n2c5c31)CNC4=O [Lestaurtinib] + CC(=O)O[C@@]12CO[C@@H]1C[C@H](O)[C@@]1(C)C(=O)[C@H](O)C3=C(C)[C@@H](OC(=O)[C@H](O)[C@@H](NC(=O)OC(C)(C)C)c4ccccc4)C[C@@](O)([C@@H](OC(=O)c4ccccc4)[C@H]21)C3(C)C [Docetaxel] (first compound 0.004 µM, partner dose 0.0001 µM)",83.5%
9,"C[As](C)SC[C@H](NC(=O)CC[C@H](N)C(=O)O)C(=O)NCC(=O)O [Darinaparsin] + O=C(Nc1ccccc1)c1cc([N+](=O)[O-])ccc1Cl [GW9662] (first compound 0.4 µM, partner dose 2 µM)",100%
10,"C[As](C)SC[C@H](NC(=O)CC[C@H](N)C(=O)O)C(=O)NCC(=O)O [Darinaparsin] + Cc1cc(SCc2sc(-c3ccc(C(F)(F)F)c(F)c3)nc2C)ccc1OCC(=O)O [GW0742] (first compound 0.4 µM, partner dose 2 µM)",102%
11,"C[C@]12O[C@H](C[C@]1(O)CO)n1c3ccccc3c3c4c(c5c6ccccc6n2c5c31)CNC4=O [Lestaurtinib] + CCCS(=O)(=O)Nc1ccc(F)c(C(=O)c2c[nH]c3ncc(Cl)cc23)c1F [PLX4720] (first compound 0.004 µM, partner dose 0.08 µM)",103%
12,"C[C@]12O[C@H](C[C@]1(O)CO)n1c3ccccc3c3c4c(c5c6ccccc6n2c5c31)CNC4=O [Lestaurtinib] + O=C(O)[C@@H]1[O][Sb](=[O])([O][Sb]2(=[O])[O][C@H]([C@H](O)CO)[C@H](O)[C@H](C(=O)O)[O]2)[O][C@H]([C@H](O)CO)[C@@H]1O [stibogluconate] (first compound 0.004 µM, partner dose 2 µM)",121%
13,"C[C@]12O[C@H](C[C@]1(O)CO)n1c3ccccc3c3c4c(c5c6ccccc6n2c5c31)CNC4=O [Lestaurtinib] + O=C(O)c1ccc2c(c1)nc(Nc1cccc(Cl)c1)c1ccncc12 [CX4945] (first compound 0.004 µM, partner dose 0.4 µM)",117%
14,"C[As](C)SC[C@H](NC(=O)CC[C@H](N)C(=O)O)C(=O)NCC(=O)O [Darinaparsin] + O=C1NC(=O)/C(=C/c2ccc(-c3ccc(F)cc3O)o2)S1 [AS252424] (first compound 0.4 µM, partner dose 1 µM)",110%
15,"C[C@]12O[C@H](C[C@]1(O)CO)n1c3ccccc3c3c4c(c5c6ccccc6n2c5c31)CNC4=O [Lestaurtinib] + CC(C)C[C@H](NC(=O)[C@H](Cc1ccccc1)NC(=O)c1cnccn1)B(O)O [Bortezomib] (first compound 0.004 µM, partner dose 0.001 µM)",92.8%
16,"C[C@]12O[C@H](C[C@]1(O)CO)n1c3ccccc3c3c4c(c5c6ccccc6n2c5c31)CNC4=O [Lestaurtinib] + N.N.[Cl][Pt][Cl] [cisplatin] (first compound 0.004 µM, partner dose 1.6 µM)",105%
17,"C[C@]12O[C@H](C[C@]1(O)CO)n1c3ccccc3c3c4c(c5c6ccccc6n2c5c31)CNC4=O [Lestaurtinib] + NC1(c2ccc(-c3nc4ccn5c(=O)[nH]nc5c4cc3-c3ccccc3)cc2)CCC1 [MK2206] (first compound 0.004 µM, partner dose 0.4 µM)",83.5%
18,"C[C@]12O[C@H](C[C@]1(O)CO)n1c3ccccc3c3c4c(c5c6ccccc6n2c5c31)CNC4=O [Lestaurtinib] + C[C@]1(O)C[C@@H](c2nc(-c3ccc4ccc(-c5ccccc5)nc4c3)c3c(N)nccn32)C1 [OSI906] (first compound 0.004 µM, partner dose 0.4 µM)",94.9%
19,"C[C@]12O[C@H](C[C@]1(O)CO)n1c3ccccc3c3c4c(c5c6ccccc6n2c5c31)CNC4=O [Lestaurtinib] + C=C(c1ccc(C(=O)O)cc1)c1cc2c(cc1C)C(C)(C)CCC2(C)C [Bexarotene] (first compound 0.004 µM, partner dose 2 µM)",96.8%
20,"C[C@]12O[C@H](C[C@]1(O)CO)n1c3ccccc3c3c4c(c5c6ccccc6n2c5c31)CNC4=O [Lestaurtinib] + CN1CCN(c2ccc3nc(-c4c(N)c5c(F)cccc5[nH]c4=O)[nH]c3c2)CC1 [Dovitinib] (first compound 0.004 µM, partner dose 0.1 µM)",95.1%
21,"C[C@]12O[C@H](C[C@]1(O)CO)n1c3ccccc3c3c4c(c5c6ccccc6n2c5c31)CNC4=O [Lestaurtinib] + CCCCCCCCc1ccc(CCC(N)(CO)CO)cc1 [fingolimod] (first compound 0.004 µM, partner dose 2 µM)",106%
